Test results from a collection of fitness landscapes (doi:10.1016/j.celrep.2020.107928).
Over roughly 81,000 sequences, “one-hybrid fitness for binding parS DNA” has its median near -0.17; the highest 2% begin near 0.51. The list shows a part of the results.

B1: Caulobacter ParB omega fusion; a variant is named by its letters at X, in order, B8GW30 (parent)
chain: MESVVVGEPGMSEGRRGLGRGLSALLGEVDAAPAQAPGEQLGGSREAPIEILQRNPDQPRRTFREEDLEDLSNSIREKGVLQPILVRPSPDTAGEYQIVAGERAWRAAQRAGLKTVPIMVRELDDLAVLEIGIIENVQRADLNVLEEALSYKVLMEKFERTQENIAQTIGKSXSHVANXMRLLXLPDEVQSYLVSGELTAXHARAIAAAADPVALAKQIIEGGLSVRETEALARKAPNLSAGKSKGGRPPRVKDTDTQALESDLSSVLGLDVSIDHRGSTGTLTITYATLEQLDDLCNRLTRGI

Variants of: B1
Experiment: one-hybrid fitness for binding parS DNA (scaled: cognate 1, non-cognate 0); higher = stronger binding
Conditions: with parS DNA site
Procedure, shortened: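 Values were rescaled so that cognate is 1 and non-cognate is 0. Each is a fitness, the log change in a variant's read ratio to wild type from Illumina reads of plasmids before and after selection, with three replicate libraries pooled and variants under 10 reads dropped. Selection of the Caulobacter ParB libraries, four specificity codons randomised, used E. coli USO with a HIS3 reporter, site 19 bp from the promoter, on M9-minus-histidine with 0.1 mM IPTG and 5 mM 3-AT for 48 hours at 37°C.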

Row | Variant | one-hybrid fitness for binding parS DNA
1 | KTQS | ≤ 0.2
2 | GKVR | ≤ 0.2
3 | PDGT | ≤ 0.2
4 | LLMR | ≤ 0.2
5 | YEHY | ≤ 0.2
6 | VSNC | ≤ 0.2
7 | MAWW | ≤ 0.2
8 | CNYG | ≤ 0.2
9 | QQWS | ≤ 0.2
10 | AHLF | ≤ 0.2
11 | AKRT | ≤ 0.2
12 | CVKF | ≤ 0.2
13 | TTTF | ≤ 0.2
14 | INAS | ≤ 0.2
15 | QKVC | ≤ 0.2
16 | LHQW | ≤ 0.2
17 | QDFT | ≤ 0.2
18 | RGDS | 0.551
19 | GPSP | ≤ 0.2
20 | IAST | ≤ 0.2
21 | TPPN | ≤ 0.2
22 | AEAP | ≤ 0.2
23 | AIEI | ≤ 0.2
24 | HWHT | ≤ 0.2

Row | Variant | one-hybrid fitness for binding parS DNA
25 | IYKC | ≤ 0.2
26 | RYWP | ≤ 0.2
27 | MSHA | ≤ 0.2
28 | RYYN | 0.383
29 | VYDS | ≤ 0.2
30 | FVVE | ≤ 0.2
31 | VWPT | ≤ 0.2
32 | ENSM | ≤ 0.2
33 | PLCA | ≤ 0.2
34 | TQGR | ≤ 0.2
35 | CGPL | ≤ 0.2
36 | CWPS | ≤ 0.2
37 | HMCC | ≤ 0.2
38 | WSHF | ≤ 0.2
39 | MLMV | ≤ 0.2
40 | TFQC | ≤ 0.2
41 | ASKT | ≤ 0.2
42 | NWNL | ≤ 0.2
43 | DGRR | ≤ 0.2
44 | LCMR | ≤ 0.2
45 | WIPI | ≤ 0.2
46 | AHMW | ≤ 0.2
47 | SHRL | ≤ 0.2
48 | NQER | ≤ 0.2

Row | Variant | one-hybrid fitness for binding parS DNA
49 | SHNK | ≤ 0.2
50 | TTLP | ≤ 0.2
51 | QRKS | ≤ 0.2
52 | PVPC | ≤ 0.2
53 | EVYV | ≤ 0.2
54 | HYTC | ≤ 0.2
55 | PTTG | ≤ 0.2
56 | TMWC | ≤ 0.2
57 | YMRS | ≤ 0.2
58 | AWVR | ≤ 0.2
59 | HCPL | ≤ 0.2
60 | KYYF | ≤ 0.2
61 | CAKT | ≤ 0.2
62 | SMRG | ≤ 0.2
63 | GSPI | ≤ 0.2
64 | ENRW | ≤ 0.2
65 | ARYK | ≤ 0.2
66 | FVPR | ≤ 0.2
67 | KDCR | ≤ 0.2
68 | NTTW | ≤ 0.2
69 | FNGC | ≤ 0.2
70 | WSTL | ≤ 0.2
71 | AGAG | ≤ 0.2
72 | GHIT | ≤ 0.2

Row | Variant | one-hybrid fitness for binding parS DNA
73 | EAPM | ≤ 0.2
74 | ILLG | ≤ 0.2
75 | VMNF | ≤ 0.2
76 | CART | ≤ 0.2
77 | QMIK | ≤ 0.2
78 | LYRI | ≤ 0.2
79 | DSIV | ≤ 0.2
80 | PKSS | ≤ 0.2
81 | RCQI | ≤ 0.2
82 | PWYF | ≤ 0.2
83 | MYSR | ≤ 0.2
84 | SILT | ≤ 0.2
85 | TPEL | ≤ 0.2
86 | WCCG | ≤ 0.2
87 | RNLF | ≤ 0.2
88 | TRDD | ≤ 0.2
89 | MTVV | ≤ 0.2
90 | PFMT | ≤ 0.2
91 | RWTP | ≤ 0.2
92 | GTMS | ≤ 0.2
93 | HVAC | ≤ 0.2
94 | IMTG | ≤ 0.2
95 | DVVA | ≤ 0.2
96 | AVTA | ≤ 0.2

Row | Variant | one-hybrid fitness for binding parS DNA
97 | YSLT | ≤ 0.2
98 | KCIW | ≤ 0.2
99 | AGHY | ≤ 0.2
100 | NMMS | ≤ 0.2
101 | EYSL | ≤ 0.2
102 | DKAW | ≤ 0.2
103 | WCYE | ≤ 0.2
104 | ITVS | ≤ 0.2
105 | VCGR | ≤ 0.2
106 | GPAR | ≤ 0.2
107 | RSFV | ≤ 0.2
108 | HRNY | ≤ 0.2
109 | RMHS | 0.979
110 | HSCC | ≤ 0.2
111 | ISNA | ≤ 0.2
112 | LASV | ≤ 0.2
113 | QFNF | ≤ 0.2
114 | NPIG | ≤ 0.2
115 | LRPT | ≤ 0.2
116 | TAGT | ≤ 0.2
117 | SKMC | ≤ 0.2
118 | KNAD | ≤ 0.2
119 | SEWS | ≤ 0.2
120 | WRAA | ≤ 0.2

Row | Variant | one-hybrid fitness for binding parS DNA
121 | PGFW | ≤ 0.2
122 | LFYS | ≤ 0.2
123 | RGNN | 0.321
124 | VQKF | ≤ 0.2
125 | QGPY | ≤ 0.2
126 | NCPI | ≤ 0.2
127 | FSMD | ≤ 0.2
128 | TTKW | ≤ 0.2
129 | HHFF | ≤ 0.2
130 | RQYL | 0.208
131 | PRNR | ≤ 0.2
132 | YLIR | ≤ 0.2
133 | NVCS | ≤ 0.2
134 | WREM | ≤ 0.2
135 | RTLV | ≤ 0.2
136 | ESIG | ≤ 0.2
137 | IDPC | ≤ 0.2
138 | PRWY | ≤ 0.2
139 | RNDQ | ≤ 0.2
140 | TQKS | ≤ 0.2
141 | APSE | ≤ 0.2
142 | RSTN | 0.461
143 | RLPC | 0.681
144 | PGFR | ≤ 0.2

Row | Variant | one-hybrid fitness for binding parS DNA
145 | SHTD | ≤ 0.2
146 | LLMI | ≤ 0.2
147 | VQKS | ≤ 0.2
148 | AIAN | ≤ 0.2
149 | QLTM | ≤ 0.2
150 | RYFM | 0.264
151 | LYIT | ≤ 0.2
152 | LSLN | ≤ 0.2
153 | YPNV | ≤ 0.2
154 | QYLS | ≤ 0.2
155 | HQCC | ≤ 0.2
156 | TPML | ≤ 0.2
157 | LWDW | ≤ 0.2
158 | CRIN | ≤ 0.2
159 | LWTV | ≤ 0.2
160 | NQMP | ≤ 0.2
161 | SVNS | ≤ 0.2
162 | MMTR | ≤ 0.2
163 | MTCC | ≤ 0.2
164 | MPVM | ≤ 0.2
165 | KFCR | ≤ 0.2
166 | KRGL | ≤ 0.2
167 | EKSN | ≤ 0.2
168 | WNTT | ≤ 0.2

Row | Variant | one-hybrid fitness for binding parS DNA
169 | LLNS | ≤ 0.2
170 | MFNG | ≤ 0.2
171 | HKVG | ≤ 0.2
172 | QLNL | ≤ 0.2
173 | GTRF | ≤ 0.2
174 | NLMV | ≤ 0.2
175 | STVP | ≤ 0.2
176 | RLNY | 0.495
177 | KYTV | ≤ 0.2
178 | RVFI | ≤ 0.2
179 | TTHP | ≤ 0.2
180 | MCGA | ≤ 0.2
181 | KCLT | ≤ 0.2
182 | QPHC | ≤ 0.2
183 | SGSK | ≤ 0.2
184 | IRTI | ≤ 0.2
185 | MGTY | ≤ 0.2
186 | TRYS | ≤ 0.2
187 | QTEQ | ≤ 0.2
188 | IYVR | ≤ 0.2
189 | VNHT | ≤ 0.2
190 | RWRY | 0.494
191 | ATPM | ≤ 0.2
192 | MKVC | ≤ 0.2

Row | Variant | one-hybrid fitness for binding parS DNA
193 | WLVS | ≤ 0.2
194 | IINP | ≤ 0.2
195 | FRLL | ≤ 0.2
196 | WASG | ≤ 0.2
197 | RYWQ | ≤ 0.2
198 | PYFF | ≤ 0.2
199 | CMRG | ≤ 0.2
200 | HDNT | ≤ 0.2
201 | RGIL | ≤ 0.2
202 | HSLF | ≤ 0.2
203 | QNVF | ≤ 0.2
204 | YFDC | ≤ 0.2
205 | VTST | ≤ 0.2
206 | MTEL | ≤ 0.2
207 | CMNR | ≤ 0.2
208 | PVGG | ≤ 0.2
209 | LNKC | ≤ 0.2
210 | ATPF | ≤ 0.2
211 | EMGG | ≤ 0.2
212 | EWTS | ≤ 0.2
213 | TVFT | ≤ 0.2
214 | DRGH | ≤ 0.2
215 | NIPW | ≤ 0.2
216 | QDDF | ≤ 0.2

Row | Variant | one-hybrid fitness for binding parS DNA
217 | MYTG | ≤ 0.2
218 | HMIC | ≤ 0.2
219 | QNPL | ≤ 0.2
220 | RTHN | 0.45
221 | FGCG | ≤ 0.2
222 | QKNA | ≤ 0.2
223 | QCVD | ≤ 0.2
224 | GESG | ≤ 0.2
225 | TVRV | ≤ 0.2
226 | ETGA | ≤ 0.2
227 | IQQR | ≤ 0.2
228 | RARA | 0.658
229 | PDKT | ≤ 0.2
230 | DQSR | ≤ 0.2
231 | TFGG | ≤ 0.2
232 | PYTM | ≤ 0.2
233 | VNKS | ≤ 0.2
234 | ADSF | ≤ 0.2
235 | ITNH | ≤ 0.2
236 | MRVS | ≤ 0.2
237 | YNQR | ≤ 0.2
238 | TYQG | ≤ 0.2
239 | RNVH | 0.202
240 | SWLR | ≤ 0.2

Row | Variant | one-hybrid fitness for binding parS DNA
241 | KTKT | ≤ 0.2
242 | HDSR | ≤ 0.2
243 | LENT | ≤ 0.2
244 | CSNH | ≤ 0.2
245 | MRES | ≤ 0.2
246 | RHKS | 0.777
247 | RIKT | 0.772
248 | LRQV | ≤ 0.2
249 | EMHT | ≤ 0.2
250 | GMFT | ≤ 0.2
251 | CYLN | ≤ 0.2
252 | IFAT | ≤ 0.2
253 | ANVY | ≤ 0.2
254 | HTPC | ≤ 0.2
255 | NLDR | ≤ 0.2
256 | SHAC | ≤ 0.2
257 | RGHE | ≤ 0.2
258 | TMTN | ≤ 0.2
259 | DTST | ≤ 0.2
260 | SKNR | ≤ 0.2
261 | KFVF | ≤ 0.2
262 | KANG | ≤ 0.2
263 | RPRT | ≤ 0.2
264 | QSWV | ≤ 0.2

Row | Variant | one-hybrid fitness for binding parS DNA
265 | DPAT | ≤ 0.2
266 | SMEA | ≤ 0.2
267 | RANM | 0.329
268 | PVDV | ≤ 0.2
269 | LYYI | ≤ 0.2
270 | KCGL | ≤ 0.2
271 | KFNY | ≤ 0.2
272 | ICKM | ≤ 0.2
273 | DWSI | ≤ 0.2
274 | SGAW | ≤ 0.2
275 | QQDW | ≤ 0.2
276 | LSNC | ≤ 0.2
277 | NCAC | ≤ 0.2
278 | STGF | ≤ 0.2
279 | MTRY | ≤ 0.2
280 | TVLG | ≤ 0.2
281 | RCKS | 0.836
282 | RAVI | ≤ 0.2
283 | RTCG | 0.999
284 | DFIG | ≤ 0.2
285 | TAVQ | ≤ 0.2
286 | TLMY | ≤ 0.2
287 | HRWN | ≤ 0.2
288 | ISCY | ≤ 0.2

Row | Variant | one-hybrid fitness for binding parS DNA
289 | GDWL | ≤ 0.2
290 | LAEP | ≤ 0.2
291 | CTTG | ≤ 0.2
292 | GQIS | ≤ 0.2
293 | FGNC | ≤ 0.2
294 | QFSK | ≤ 0.2
295 | SLTK | ≤ 0.2
296 | ENRG | ≤ 0.2
297 | TGQR | ≤ 0.2
298 | SHEK | 0.249
299 | QKGD | ≤ 0.2
300 | LVSF | ≤ 0.2
301 | QYNF | ≤ 0.2
302 | VTVE | ≤ 0.2
303 | CQRM | ≤ 0.2
304 | APIL | ≤ 0.2
305 | HLHF | ≤ 0.2
306 | ECMP | ≤ 0.2
